{"source": "PubChem BioAssay AID624417", "about": "(National Center for Advancing Translational Sciences (NCATS), 2012)", "note": "Among all 410,000 compounds or so, about 6,400 (1.6%) were called active. The shares of active, inactive and inconclusive entries below differ from those in the screen. The call rests on the fitted dose curve; in most records, active means well fitted inhibition curve with a large enough effect; inconclusive means small, poorly fitted or top-dose-only effect; inactive means no such curve, though single readings can be large or run the other way. No potency is given beside an inconclusive call; the fits are too rough. On the % scale 0 is the no-effect control and ±100 the full control effect; potency means the concentration at half of the fitted maximal effect; tags describe the fitted curve by direction and shape.", "data": [{"biological_target": "Glucagon-like peptide 1 receptor (Homo sapiens) (UniProt P43220)", "sequence (P43220 whole entry, looked up)": "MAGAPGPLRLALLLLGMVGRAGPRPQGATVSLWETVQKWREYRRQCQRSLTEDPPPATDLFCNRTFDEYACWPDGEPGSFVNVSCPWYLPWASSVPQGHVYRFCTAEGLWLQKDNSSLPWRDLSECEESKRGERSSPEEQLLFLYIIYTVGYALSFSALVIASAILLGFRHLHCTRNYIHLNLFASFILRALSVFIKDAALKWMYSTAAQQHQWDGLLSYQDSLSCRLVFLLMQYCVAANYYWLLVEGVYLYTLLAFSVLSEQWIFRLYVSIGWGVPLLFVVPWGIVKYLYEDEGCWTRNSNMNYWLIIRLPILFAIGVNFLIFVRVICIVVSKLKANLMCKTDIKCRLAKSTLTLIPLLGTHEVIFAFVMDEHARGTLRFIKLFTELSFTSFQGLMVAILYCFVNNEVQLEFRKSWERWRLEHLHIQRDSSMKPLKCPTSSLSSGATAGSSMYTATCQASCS", "assay": "qHTS of GLP-1 Receptor Inverse Agonists (Inhibition Mode); further: nearly all actives have a fitted effect of over 55% in size", "conditions": "HEK293 GLP-1R CRE-luciferase, luminescence, 24 h, GLP-1R form is constitutively active; activity change, negative = inhibition: at 38.3 µM (top of the series) unless noted", "in_short": "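Assay principle: reduced luminescence from a cAMP-responsive reporter in HEK293 cells co-expressing a constitutively active GLP-1R. Conditions: 24 hr compound incubation, 37 deg C, 5% CO2.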", "values": [{"smiles": "COc1cccc(N2CCN(c3nc(-c4ccccc4C)cc(=O)[nH]3)CC2)c1", "Potency": "inconclusive [inhibitor, partial curve, poor fit]"}, {"smiles": "CC(C)c1nc2c(c(=O)c3ccccc3n2C)c(=O)n1CCc1ccccc1", "Potency": "inconclusive [inhibitor, partial curve, poor fit]"}, {"smiles": "CN1CCN(CCCOc2ccc(-c3ccccc3)cc2)CC1", "Potency": "inconclusive [inhibitor, full curve, poor fit]"}, {"smiles": "CC1CCCCN1CCNS(=O)(=O)c1ccc2c(c1)oc(=O)n2C", "note": "(stereo unspecified)", "activity change, negative = inhibition": "inactive: -5.49%"}, {"smiles": "CC1Cc2cc(S(=O)(=O)N(C)c3ccc(Br)cc3)ccc2N1C(=O)C1CC1", "note": "(stereo unspecified)", "Potency": "inconclusive [inhibitor, single point]"}, {"smiles": "O=C1C(SC(F)(F)C(F)F)=C(C(F)(F)F)OC2C3C=CC(C3)C12", "note": "(stereo unspecified)", "Potency": "inconclusive [inhibitor, single point]"}, {"smiles": "Cc1cc(C)cc(-n2c(C)cc(C(=O)CSc3nnnn3C)c2C)c1", "Potency": "inconclusive [inhibitor, partial curve, poor fit]"}, {"smiles": "COc1ccc(NC(=O)C2(C)Cc3c(-c4ccc(NC(C)=O)cc4)ccnc3O2)cc1OC", "note": "(stereo unspecified)", "activity change, negative = inhibition": "inactive: 18.8%"}, {"smiles": "O=C(NCCN1CCOCC1)c1ccc2c(c1)N(Cc1ccc(Cl)cc1)CCS2", "Potency": "inconclusive [inhibitor, full curve, poor fit]"}, {"smiles": "O=C(Nc1ccccc1N1CCN(c2ccccc2)CC1)c1ccccc1", "Potency": "inconclusive [inhibitor, single point]"}, {"smiles": "Cc1nc(-c2ccc(C)c(S(=O)(=O)N3CCC(C(=O)Nc4ccc(Cl)cc4)CC3)c2)no1", "Potency": "active: 10 µM"}, {"smiles": "CC(NC(=O)CN1CCCC1)c1ccccc1", "note": "(stereo unspecified)", "activity change, negative = inhibition": "inactive: 4.59%"}, {"smiles": "CCCOc1ccc(F)cc1-c1cc(C(=O)NCc2ccc(C(F)(F)F)cc2)[nH]n1", "Potency": "inconclusive [inhibitor, single point]"}, {"smiles": "CCCCCNC(=O)c1ccc2c(c1)nc(C)n2-c1cccc(C)c1", "Potency": "inconclusive [inhibitor, single point]"}, {"smiles": "O=C(NCc1cccs1)c1ccc(CSc2nc3cccnc3n2Cc2ccccc2)cc1", "Potency": "inconclusive [inhibitor, single point]"}, {"smiles": "O=C1C2=C(Nc3ccccc3SC2c2ccccc2C(F)(F)F)c2ccccc21", "note": "(stereo unspecified)", "Potency": "inconclusive [inhibitor, partial curve, poor fit]"}, {"smiles": "CC1(Cc2cc(Cl)ccc2C(F)(F)F)C(=O)Nc2ccc(-c3ccc(F)c(Cl)c3)cc21", "note": "(stereo unspecified)", "Potency": "inconclusive [inhibitor, single point]"}, {"smiles": "CCN(CC)S(=O)(=O)c1ccc(NC2CCN(Cc3ccccc3)CC2)nc1", "Potency": "inconclusive [inhibitor, partial curve, poor fit]"}, {"smiles": "Cc1c(/C=N/NC(=O)CNc2ccccc2)c2ccccn2c1C(=O)c1ccccc1", "Potency": "inconclusive [inhibitor, single point]"}, {"smiles": "Nc1sc2c(c1C(=O)NCCc1ccccc1)CCCC2", "activity change, negative = inhibition": "inactive: 9.79%"}, {"smiles": "CC(C)(OC(=O)c1ccc(C(F)(F)F)cc1)c1cc2ccccc2c(=O)o1", "Potency": "inconclusive [inhibitor, single point]"}, {"smiles": "COc1cc(CNC(C)C23CC4CC(CC(C4)C2)C3)cc(OC)c1OC", "note": "(stereo unspecified)", "activity change, negative = inhibition": "inconclusive: -81.3% [inhibitor]"}, {"smiles": "Cc1[nH]c(=S)c(C#N)c(C)c1C(=O)Nc1ccccc1", "activity change, negative = inhibition": "inactive: 0.449%"}, {"smiles": "N#Cc1cc(C(=O)c2cc(Br)ccc2O)cn(Cc2ccccc2)c1=O", "Potency": "inconclusive [inhibitor, single point]"}, {"smiles": "c1ccc(-n2c(-c3ccco3)nnc2-c2ccco2)cc1", "activity change, negative = inhibition": "inactive: 10.2%"}, {"smiles": "O=C1/C(=C/c2ccccc2F)SC(=S)N1CC(=O)N1CCCCC1c1cccnc1", "note": "(stereo unspecified)", "Potency": "inconclusive [inhibitor, partial curve, poor fit]"}, {"smiles": "Cc1nc2ccc(F)cc2cc1C(=O)NCC1CCCO1", "note": "(stereo unspecified)", "Potency": "inconclusive [inhibitor, single point]"}, {"smiles": "Cc1[nH]c2ccc(C(=O)NC3CCC(C)CC3)cc2c1C", "note": "(stereo unspecified)", "Potency": "inconclusive [inhibitor, full curve, poor fit]"}, {"smiles": "Cc1ccc(CNC(=O)c2cc(S(=O)(=O)N3CCCCCC3)cn2C)cc1", "Potency": "inconclusive [inhibitor, single point]"}, {"smiles": "CCOc1ccccc1NC(=O)CN1c2ccccc2S(=O)(=O)c2ccccc21", "activity change, negative = inhibition": "inactive: -17.8%"}, {"smiles": "Cc1cc(C)cc(NC(=O)C(NCCN2CCOCC2)c2ccccc2)c1", "note": "(stereo unspecified)", "Potency": "inconclusive [inhibitor, single point]"}, {"smiles": "Cc1cccc(CNC(=O)c2ccc3c(c2)N(C)C(=O)C2CCCCN32)c1", "note": "(stereo unspecified)", "Potency": "inconclusive [inhibitor, single point]"}, {"smiles": "C/C(=N\\NC(=O)C1CC1)c1ccc(C)c(C)c1", "Potency": "inconclusive [inhibitor, single point]"}, {"smiles": "CCCCC(=O)OC1=C(C(=O)c2ccccc2)N(C)S(=O)(=O)c2ccccc21", "Potency": "inconclusive [inhibitor, single point]"}, {"smiles": "Cc1ccccc1Nc1c(-c2cccnc2)nc2ccccn12", "Potency": "inconclusive [inhibitor, single point]"}, {"smiles": "CCCCCCCCNC(C)C(O)c1ccc(SC(C)C)cc1", "note": "(stereo unspecified)", "Potency": "inconclusive [inhibitor, single point]"}, {"smiles": "O=C(Nc1nnc(C2CC2)s1)c1ccc(Cl)c(S(=O)(=O)N2CCc3ccccc3C2)c1", "Potency": "inconclusive [inhibitor, single point]"}, {"smiles": "O=C(c1ccc(N2CCCC2=O)cc1)N1CCN(c2cccc(C(F)(F)F)c2)CC1", "Potency": "inconclusive [inhibitor, single point]"}, {"smiles": "Cc1c(C(=O)N2CCCCCC2)oc2ccccc12", "Potency": "inconclusive [inhibitor, single point]"}, {"smiles": "Cc1ccc2c(c1)COc1c3ccc(C(=O)N[C@@H](CO)C(C)C)cc3nn1-2", "activity change, negative = inhibition": "inactive: 14.5%"}, {"smiles": "Cc1ccc(NC(=O)COc2ccccc2C(=O)NCCc2ccccc2)cc1", "Potency": "inconclusive [inhibitor, partial curve, poor fit]"}]}]}
